# Reference: the supplement of paper PMC8728848
# The other results are listed elsewhere or left out.
# B1: PX9937J-pdi-523-26-523 (Parabacteroides distasonis) (protein)
# chain: EPVSSISDANYWKSPDLFKAFNIGLHGLLRSQSSYNIFVLGEPRSDIYGDQPFGGEATQGVERFSYNTINAEFTGISNFANFYTTLNQINLMIRRTNETDLLGEAEKNYYLGQAYGLRAYIYFHLLRSWGDVIITTEPTLGSELDISHLDKAASPASEVMDLIKKDIDASEKAFGGDYSYKQGKCYWSKPATLMLKGEVYLWSGRQMGGGTGDYTVAKTALQDLQQNGNLKLQEKFTDVFSFNNKENSEMIFALHSGKEDDFMMWRDYNWRNNMVPQREYMAGYCDETGTPFLEIPGYNLQGLMRYQVKKDHYLKSFREGDTRLKGTLKAVYKKHEDGTLEYIAPIQYKFQGTTLEGSNERSWYDDYPIYRYADALLLLAEAKALLGEDPSTEINAVRERAYGSEYFNAHKNEVAYPNDKGSFYNDNPFEAGDENVMEAILKERLREFFFEGKRWYDLRRFGKDYVLKYTTAQESRLLWPINEGALTNNPALKQTPGY
# Experiments:
# Assay in all cases: glycan array binding signal (z-score within array); higher = stronger binding
# Details in all cases: glycan notation: IUPAC condensed, linker removed
# [1] = target: Gal(b1-4)GlcNAc(b1-3)Gal(b1-4)GlcNAc(b1-3)Gal(b1-4)GlcNAc(b1-3)Gal(b1-4)GlcNAc(b1-2)Man(a1-3)[Gal(b1-4)GlcNAc(b1-3)Gal(b1-4)GlcNAc(b1-3)Gal(b1-4)GlcNAc(b1-3)Gal(b1-4)GlcNAc(b1-2)Man(a1-6)]Man(b1-4)GlcNAc(b1-4)[Fuc(a1-6)]GlcNAc
# Procedure, shortened: (§1)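 Arrays were curated from the Consortium for Functional Glycomics database, 3228 in total, and kept only where the protein sequence was available. Binding is expressed as a within-array Z-score. This score was averaged across arrays of the same protein sequence at different concentrations or buffers and across linkers, and negative values can be read as non-binding.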
# [2] = target: Gal(b1-4)GlcNAc(b1-3)Gal(b1-4)GlcNAc(b1-3)Gal(b1-4)GlcNAc(b1-3)Gal(b1-4)GlcNAc(b1-2)[Gal(b1-4)GlcNAc(b1-3)Gal(b1-4)GlcNAc(b1-3)Gal(b1-4)GlcNAc(b1-3)Gal(b1-4)GlcNAc(b1-6)]Man(a1-6)[Gal(b1-4)GlcNAc(b1-3)Gal(b1-4)GlcNAc(b1-3)Gal(b1-4)GlcNAc(b1-3)Gal(b1-4)GlcNAc(b1-2)Man(a1-3)]Man(b1-4)GlcNAc(b1-4)[Fuc(a1-6)]GlcNAc
# Procedure, shortened: as §1
# [3] = target: Gal(b1-4)GlcNAc(b1-3)Gal(b1-4)GlcNAc(b1-3)Gal(b1-4)GlcNAc(b1-3)Gal(b1-4)GlcNAc(b1-3)Gal(b1-4)GlcNAc(b1-2)Man(a1-3)[Gal(b1-4)GlcNAc(b1-3)Gal(b1-4)GlcNAc(b1-3)Gal(b1-4)GlcNAc(b1-3)Gal(b1-4)GlcNAc(b1-3)Gal(b1-4)GlcNAc(b1-2)Man(a1-6)]Man(b1-4)GlcNAc(b1-4)GlcNAc
# Procedure, shortened: as §1
# [4] = target: Gal(b1-4)GlcNAc(b1-3)Gal(b1-4)GlcNAc(b1-3)Gal(b1-4)GlcNAc(b1-3)Gal(b1-4)GlcNAc(b1-3)Gal(b1-4)GlcNAc(b1-2)Man(a1-3)[Gal(b1-4)GlcNAc(b1-3)Gal(b1-4)GlcNAc(b1-3)Gal(b1-4)GlcNAc(b1-3)Gal(b1-4)GlcNAc(b1-3)Gal(b1-4)GlcNAc(b1-2)Man(a1-6)]Man(b1-4)GlcNAc(b1-4)[Fuc(a1-6)]GlcNAc
# Procedure, shortened: as §1
# [5] = target: Gal(b1-4)GlcNAc(b1-3)Gal(b1-4)GlcNAc(b1-3)Gal(b1-4)GlcNAc(b1-3)Gal(b1-4)GlcNAc(b1-3)Gal(b1-4)GlcNAc(b1-2)[Gal(b1-4)GlcNAc(b1-3)Gal(b1-4)GlcNAc(b1-3)Gal(b1-4)GlcNAc(b1-3)Gal(b1-4)GlcNAc(b1-3)Gal(b1-4)GlcNAc(b1-6)]Man(a1-6)[Gal(b1-4)GlcNAc(b1-3)Gal(b1-4)GlcNAc(b1-3)Gal(b1-4)GlcNAc(b1-3)Gal(b1-4)GlcNAc(b1-3)Gal(b1-4)GlcNAc(b1-2)Man(a1-3)]Man(b1-4)GlcNAc(b1-4)[Fuc(a1-6)]GlcNAc
# Procedure, shortened: as §1
# [6] = target: Gal(b1-4)GlcNAc(b1-3)Gal(b1-4)GlcNAc(b1-3)Gal(b1-4)GlcNAc(b1-3)Gal(b1-4)GlcNAc(b1-3)Gal(b1-4)GlcNAc(b1-3)Gal(b1-4)GlcNAc(b1-2)Man(a1-3)[Gal(b1-4)GlcNAc(b1-3)Gal(b1-4)GlcNAc(b1-3)Gal(b1-4)GlcNAc(b1-3)Gal(b1-4)GlcNAc(b1-3)Gal(b1-4)GlcNAc(b1-3)Gal(b1-4)GlcNAc(b1-2)Man(a1-6)]Man(b1-4)GlcNAc(b1-4)GlcNAc
# Procedure, shortened: as §1
# [7] = target: Gal(b1-4)GlcNAc(b1-3)Gal(b1-4)GlcNAc(b1-3)GalNAc
# Procedure, shortened: as §1
# [8] = target: Gal(b1-4)GlcNAc(b1-3)Gal(b1-4)GlcNAc(b1-3)[Gal(b1-4)GlcNAc(b1-3)Gal(b1-4)GlcNAc(b1-6)]GalNAc
# Procedure, shortened: as §1
# [9] = target: Gal(b1-4)GlcNAc(b1-3)Gal(b1-4)GlcNAc(b1-6)[Gal(b1-3)]GalNAc
# Procedure, shortened: as §1
# [10] = target: Gal(b1-4)GlcNAc(b1-3)Gal(b1-4)[Fuc(a1-3)]GlcNAc(b1-3)Gal(b1-4)[Fuc(a1-3)]GlcNAc
# Procedure, shortened: as §1
# [11] = target: Gal(b1-4)GlcNAc(b1-3)GalNAc
# Procedure, shortened: as §1
# [12] = target: Gal(b1-4)GlcNAc(b1-3)[Fuc(a1-3)GlcNAc(b1-6)]Gal(b1-4)Glc
# Procedure, shortened: as §1
# [13] = target: Gal(b1-4)GlcNAc(b1-3)[Gal(b1-4)GlcNAc(b1-6)]Gal(b1-4)GlcNAc
# Procedure, shortened: as §1
# [14] = target: Gal(b1-4)GlcNAc(b1-3)[GlcNAc(b1-6)]Gal(b1-4)GlcNAc
# Procedure, shortened: as §1
# [15] = target: Gal(b1-4)GlcNAc(b1-6)Gal(b1-4)GlcNAc
# Procedure, shortened: as §1
# [16] = target: Gal(b1-4)GlcNAc(b1-6)GalNAc
# Procedure, shortened: as §1
# [17] = target: Gal(b1-4)GlcNAc(b1-6)[Gal(b1-3)]GalNAc
# Procedure, shortened: as §1
# [18] = target: Gal(b1-4)GlcNAc(b1-6)[Gal(b1-4)GlcNAc(b1-3)]GalNAc
# Procedure, shortened: as §1
# Gal(b1-4)GlcNAc6P = target: Gal(b1-4)GlcNAc6P
# Procedure, shortened: as §1
# Gal(b1-6)Gal = target: Gal(b1-6)Gal
# Procedure, shortened: as §1
# Gal3S(b1-3)GalNAc = target: Gal3S(b1-3)GalNAc
# Procedure, shortened: as §1
# Gal3S(b1-3)GlcNAc = target: Gal3S(b1-3)GlcNAc
# Procedure, shortened: as §1
# [19] = target: Gal3S(b1-3)[Fuc(a1-4)]GlcNAc
# Procedure, shortened: as §1
# Gal3S(b1-4)Glc = target: Gal3S(b1-4)Glc
# Procedure, shortened: as §1
# Gal3S(b1-4)Glc6S = target: Gal3S(b1-4)Glc6S
# Procedure, shortened: as §1
# Gal3S(b1-4)GlcNAc = target: Gal3S(b1-4)GlcNAc
# Procedure, shortened: as §1
# [20] = target: Gal3S(b1-4)[Fuc(a1-3)]Glc6S
# Procedure, shortened: as §1
# [21] = target: Gal3S(b1-4)[Fuc(a1-3)]GlcNAc
# Procedure, shortened: as §1
# [22] = target: Gal3S(b1-4)[Fuc(a1-3)]GlcNAc6S
# Procedure, shortened: as §1
# Gal3S4S(b1-4)GlcNAc = target: Gal3S4S(b1-4)GlcNAc
# Procedure, shortened: as §1
# Gal3S6S(b1-4)GlcNAc = target: Gal3S6S(b1-4)GlcNAc
# Procedure, shortened: as §1
# Gal3S6S(b1-4)GlcNAc6S = target: Gal3S6S(b1-4)GlcNAc6S
# Procedure, shortened: as §1
# Gal4S(b1-4)GlcNAc = target: Gal4S(b1-4)GlcNAc
# Procedure, shortened: as §1
# Gal4S6S(b1-4)GlcNAc = target: Gal4S6S(b1-4)GlcNAc
# Procedure, shortened: as §1
# Gal6P(b1-4)GlcNAc = target: Gal6P(b1-4)GlcNAc
# Procedure, shortened: as §1
# Gal6S(b1-3)GlcNAc = target: Gal6S(b1-3)GlcNAc
# Procedure, shortened: as §1
# Gal6S(b1-3)GlcNAc6S = target: Gal6S(b1-3)GlcNAc6S
# Procedure, shortened: as §1
# Gal6S(b1-4)Glc = target: Gal6S(b1-4)Glc
# Procedure, shortened: as §1
binder,measurement,setting,value
B1,glycan array binding signal (z-score),[1],0.026
same,glycan array binding signal (z-score),[2],1.03
same,glycan array binding signal (z-score),[3],0.269
same,glycan array binding signal (z-score),[4],0.647
same,glycan array binding signal (z-score),[5],0.222
same,glycan array binding signal (z-score),[6],8.6
same,glycan array binding signal (z-score),[7],6.57
same,glycan array binding signal (z-score),[8],0.609
same,glycan array binding signal (z-score),[9],0.289
same,glycan array binding signal (z-score),[10],-0.26
same,glycan array binding signal (z-score),[11],-0.086
same,glycan array binding signal (z-score),[12],-0.041
same,glycan array binding signal (z-score),[13],-0.21
same,glycan array binding signal (z-score),[14],-0.268
same,glycan array binding signal (z-score),[15],-0.198
same,glycan array binding signal (z-score),[16],0.137
same,glycan array binding signal (z-score),[17],-0.514
same,glycan array binding signal (z-score),[18],-0.149
same,glycan array binding signal (z-score),Gal(b1-4)GlcNAc6P,-0.265
same,glycan array binding signal (z-score),Gal(b1-6)Gal,0.433
same,glycan array binding signal (z-score),Gal3S(b1-3)GalNAc,-0.339
same,glycan array binding signal (z-score),Gal3S(b1-3)GlcNAc,0.47
same,glycan array binding signal (z-score),[19],0.136
same,glycan array binding signal (z-score),Gal3S(b1-4)Glc,-0.096
same,glycan array binding signal (z-score),Gal3S(b1-4)Glc6S,-0.212
same,glycan array binding signal (z-score),Gal3S(b1-4)GlcNAc,-0.432
same,glycan array binding signal (z-score),[20],0.076
same,glycan array binding signal (z-score),[21],-0.159
same,glycan array binding signal (z-score),[22],0.348
same,glycan array binding signal (z-score),Gal3S4S(b1-4)GlcNAc,-0.379
same,glycan array binding signal (z-score),Gal3S6S(b1-4)GlcNAc,0.142
same,glycan array binding signal (z-score),Gal3S6S(b1-4)GlcNAc6S,0.587
same,glycan array binding signal (z-score),Gal4S(b1-4)GlcNAc,0.407
same,glycan array binding signal (z-score),Gal4S6S(b1-4)GlcNAc,-0.181
same,glycan array binding signal (z-score),Gal6P(b1-4)GlcNAc,-0.292
same,glycan array binding signal (z-score),Gal6S(b1-3)GlcNAc,1.08
same,glycan array binding signal (z-score),Gal6S(b1-3)GlcNAc6S,0.324
same,glycan array binding signal (z-score),Gal6S(b1-4)Glc,-0.258
